Measurements reported in PMC6919601, “Identification of Plasmodium dipeptidyl aminopeptidase allosteric inhibitors by high throughput screening” (PLoS ONE, 2019).
Several values for one entry are separate records, joined by “and”; a condition that tells them apart may be missing. Identical values can stand only once. The campaign covered roughly 110,000 compounds. About 230 (0.21%) showed an effect of 50% or more. The list shows a part of the results.

Target: DPAP1 (Plasmodium falciparum, UniProt Q8IIJ9)
Sequence (Q8IIJ9 whole entry, looked up): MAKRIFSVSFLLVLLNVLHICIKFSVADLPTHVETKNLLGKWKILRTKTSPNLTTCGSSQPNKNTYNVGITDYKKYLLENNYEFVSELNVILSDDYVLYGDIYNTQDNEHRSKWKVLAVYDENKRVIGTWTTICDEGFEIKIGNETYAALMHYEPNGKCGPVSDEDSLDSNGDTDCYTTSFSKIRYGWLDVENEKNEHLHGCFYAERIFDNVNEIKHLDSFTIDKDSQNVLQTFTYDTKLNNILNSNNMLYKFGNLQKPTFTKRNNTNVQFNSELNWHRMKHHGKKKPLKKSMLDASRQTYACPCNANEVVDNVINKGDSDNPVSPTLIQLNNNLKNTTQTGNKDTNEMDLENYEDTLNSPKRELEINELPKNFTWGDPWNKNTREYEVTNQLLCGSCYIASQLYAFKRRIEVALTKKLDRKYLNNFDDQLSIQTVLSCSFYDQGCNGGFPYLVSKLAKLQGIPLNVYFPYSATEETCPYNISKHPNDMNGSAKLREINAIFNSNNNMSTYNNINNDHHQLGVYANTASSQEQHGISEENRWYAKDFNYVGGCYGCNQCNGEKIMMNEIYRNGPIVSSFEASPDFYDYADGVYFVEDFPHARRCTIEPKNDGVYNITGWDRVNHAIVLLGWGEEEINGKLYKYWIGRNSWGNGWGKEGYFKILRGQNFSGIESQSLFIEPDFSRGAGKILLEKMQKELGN
Test: primary screen, percent inhibition; read by cleavage of a fluorogenic dipeptide substrate; higher = more effect of the substance
Design: species or system P. falciparum D10 trophozoite lysates; single well
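Also: 30 min substrate incubation versus DMSO and 10 µM JCP410 controls.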

| Structure (SMILES) | % Inhibition @ 10 uM |
| --- | --- |
| O=C(Cn1ncc2c3ccccc3n(Cc3cccc(Cl)c3)c2c1=O)N1CCC2(CC1)OCCO2 | -1.58% |
| CC(C)(C)C(=O)CC(=O)Nc1cc(N)ccc1Cl | 3.42% |
| O=C(O)CCC(=O)Nc1cccc(Cl)c1 | 2.4% |
| O=C(CCN1CCCCC1)Nc1ccc(Cl)cc1C(=O)c1ccccc1 | 0.196% |
| CCCCCn1c(=O)c(C(=O)Nc2ccc(OCC)cc2)c(O)c2ccccc21 | -6.51% |
| COc1ccc2c(c1)C(=O)Nc1cc(Cl)ccc1N2 | 0.843% |
| CCOC(=O)c1cc(-c2ccc(C)cc2)n(CCC(=O)Nc2cccnc2)c1C | 3.32% |
| CCN(CC)c1ncnc2scc(C3COc4ccccc4O3)c12 (stereo not drawn) | 4.75% and 4.44% |
| Cn1nc(C(=O)N2CCCN(Cc3ccccc3F)C2)c2c1-c1ccccc1S(=O)(=O)C2 | 3.71% |
| CC(C)(C)C1CCc2c(sc3[nH]c(=S)[nH]c(=O)c23)C1 (stereo not drawn) | 7.19% |
| CC(c1ccccc1)N1C(=O)NC(NS(=O)(=O)c2ccccc2)(C(F)(F)F)C1=O (stereo not drawn) | 5.12% |
| Cc1nc2sc(C(=O)Nc3ccc4ccccc4c3)c(N)c2c(C)c1C | 29.1% |
| CCO/C(O)=C1/C(C)=Nc2nc3ccccc3n2C1c1ccccc1OC (stereo not drawn) | 1.91% |
| CCCOC(=O)C1=C(C)NC(=O)NC1c1cccc(Br)c1 (stereo not drawn) | 4.38% |
| O=C(O)COc1ccc(S(=O)(=O)NCCc2ccccc2)cc1 | 0.315% |
| Cc1ccccc1N1CC(=O)NC1=O | 0.132% |
| CNc1c(NS(=O)(=O)c2cc(Cl)ccc2OC)c(=O)oc2ccccc12 | -5.05% |
| Cc1oc2ncnc(N3CCOCC3)c2c1C(=O)NCCN(Cc1ccco1)C1CCCC1 | -1.43% |
| c1ccc2nc3c(nc2c1)CCc1nonc1-3 | 2% |
| O=C(NCC1CCCO1)c1cc2nc(-c3cccs3)cc(C(F)(F)Cl)n2n1 (stereo not drawn) | -7.1% |
| O=C(Nc1cccc(-c2nc3ncccc3o2)c1)c1ccccc1 | 1.34% |
| O=C(c1nn2c(c1Br)NC(c1ccccc1)CC2C(F)(F)F)N1CCN2CCCC2C1 (stereo not drawn) | 7.5% |
| Cc1cc(NC(=O)CSc2nc3c(c(-c4cccnc4)c2C#N)CCC3)no1 | -7.75% |
| CCOC(=O)C1=C(CN(CCOC)Cc2ccco2)NC(=O)NC1c1cccs1 (stereo not drawn) | 3.85% |
| CCC[C@@H](/C=C/S(=O)(=O)c1ccccc1)NC(=O)[C@H](Cc1ccccc1)NC(=O)N1CCC(N2CCOCC2)CC1 | -3.04% |

| Structure (SMILES) | % Inhibition @ 10 uM |
| --- | --- |
| O=C(Cn1nc(-c2ccc(Cl)cc2)ccc1=O)NCc1cccnc1 | -5.43% |
| COc1ccc(C(=O)Nc2ccccc2C(=O)NCc2cccnc2)cc1 | 1.27% |
| CCC(C)Sc1nc(O)c2cnn(-c3ccc(F)cc3)c2n1 (stereo not drawn) | -0.363% |
| Cc1ccccc1C(=O)N1CCN(c2ccc(F)cc2)CC1 | 0.526% |
| O=c1oc2ccc3ccccc3c2cc1-c1csc(NCc2ccc(F)cc2)n1 | 2.4% |
| c1ccc(-c2ccc(CN3CCN(c4ncccn4)CC3)cc2)cc1 | 1.55% |
| O=C(O)c1cc2c(s1)CS(=O)(=O)C2 | 1.42% |
| Cc1c[nH]c2cccc(OCC(O)CNC(C)(C)C)c12 (stereo not drawn) | 0.00178% |
| CC1(C)CC2=NC3=C(C(=O)CC(C)(C)C3)C(c3cc(Cl)c(O)c(Cl)c3)C2=C(O)C1 (stereo not drawn) | 13.2% |
| CC(C)C[C@H](NC(=O)c1ccc(NC(=O)OCCCc2cccnc2)cc1)C(=O)NCC#N | -0.778% |
| O=C(c1cc(-c2ccc(Cl)cc2)n[nH]1)N1CCCCCC1 | -2.74% |
| CCCCN(CCCC)C(=O)c1ccc(C/N=c2\c(O)c(O)\c2=N/C2CCCC2)cc1 | 3.24% |
| C/N=C1/S/C(=C\c2ccc(N3Cc4ccccc4C3)cc2)C(=O)N1C | -5.19% |
| O=C(Nc1cc(Cl)c(Cl)cc1Cl)c1ccc(Br)cc1 | 0.526% |
| CC[C@H](NC(=O)[C@H](Cc1c(F)cc(F)cc1F)NC(=O)c1ccc(-c2ccccc2Cl)cc1)C(=O)c1nc2ccccc2o1 | -1.82% |
| CCN(CC)S(=O)(=O)c1cccc(C(=O)Nc2ccc(Br)cc2)c1 | -2.55% |
| Nc1ccc(Cc2ccc(N)c(Cl)c2)cc1Cl | 1.64% |
| CCc1nc2ccc(C(=O)N(C)Cc3ccccc3)cc2nc1CC | 3.1% |
| COc1cc2sc3c(O)nc4ccccc4c3c2cc1OC | 4.42% |
| COc1ccc(Cl)cc1NC(=O)CN(Cc1ccc(Cl)cc1)S(=O)(=O)c1ccccc1 | -2.92% |
| Cc1nc2ccccc2n1CC(O)Cn1c(C(F)(F)F)nc2ccccc21 (stereo not drawn) | 0.163% |
| O=C(CN1CCCCCC1)N1CCn2c3c(c4cc(C5CCCCC5)ccc42)CCCC31 (stereo not drawn) | 0.716% |
| COc1cc(OC)cc(C(=O)NCC(C)C)c1 | 4.42% |
| CCc1c2ccc(C)n2cc[n+]1CC(=O)c1ccccc1 | -2.07% |
| Oc1nc(NCc2ccco2)nnc1Cc1ccccc1Cl | -3.01% |

| Structure (SMILES) | % Inhibition @ 10 uM |
| --- | --- |
| Cc1ccc2oc(=O)c3cc(C(=O)Nc4cccnc4Cl)sc3c2c1 | -0.0593% |
| CC(=O)N(CCCN(C)C)c1nc2ccc(C)cc2s1 | 0.49% |
| COCCNC(=O)CS(=O)Cc1nc(-c2cccc(C)c2)oc1C (stereo not drawn) | -2.85% |
| O=C(NCc1ccccc1)C(CS(=O)(=O)Cc1ccccc1)N1Cc2ccccc2C1=O (stereo not drawn) | 0.56% |
| O=C(O)C1C2CCC(C2)C1C(=O)N1CCN(c2ccccc2F)CC1 (stereo not drawn) | -5.26% |
| CC(=O)Nc1sc2c(c1CN1CCN(Cc3ccccc3)CC1)CCCC2 | 17.4% |
| O=C(N/C(=C\c1cccnc1)c1nc2ccccc2[nH]1)c1cccc(Br)c1 | -7.08% |
| Cn1c(=O)c2c(-c3ccccc3)n3ncccc3c2n(C)c1=O | -0.994% |
| CCSC1=NSC2=NC(=O)/C(=C\c3ccc(O)cc3)C(=N)N12 | 0.287% |
| Cc1cc(C)c(C(=O)/C=C/c2ccc(Cl)cc2Cl)c(O)n1 | 3% |
| CC[C@H](C)[C@H](NC(=O)c1ccc(N(C)C)cc1)C(=O)NCC#N | -11% |
| CC(C)CC(NC(=O)CCN1C(=O)c2ccccc2C1=O)c1ccccc1 (stereo not drawn) | -0.992% |
| CCc1ccc(C2CC(c3ccc(OC)c(OC)c3)=NN2C(C)=O)cc1 (stereo not drawn) | 8.73% |
| O=C(NCCc1cccs1)c1cnn(-c2ccccc2)c1-n1cccc1 | -7.44% |
| N#C/C(=C\c1cc(Br)ccc1O)c1nc2ccccc2s1 | 5.7% |
| CCCC[C@H](NC(=O)[C@@H](NC(C)=O)C(C)C)C(=O)c1nc2ccccc2o1 | 2.86% |
| CC(C)C(=O)Nc1ccc2oc3ccccc3c2c1 | -0.653% |
| O=C(CCC(=O)n1ncc2ccc(Cl)cc21)NC1CCCc2ccccc21 (stereo not drawn) | 30.1% |
| C=C(C)Cn1c(SCC(C)C)nc2c1c(=O)[nH]c(=O)n2C | 2.51% |
| CCOC(=O)N1CCN(c2c(-c3ccc(C(C)C)cc3)c(=O)c2=O)CC1 | 1.42% |
| CC1=CC(C)(C)N(Cc2ccc([N+](=O)[O-])cc2)c2ccccc21 | -2.55% |
| CN(C)CC/N=C/c1c(O)[nH]c2ccccc12 | 1.97% |
| CCN(CCN(C)C)C(=O)Cn1ncc2c(=O)oc3ccccc3c21 | 2.85% |
| N#Cc1c(-c2ccccc2F)n2cnnc2n(Cc2ccccc2F)c1=O | 4.31% |
| CC(=O)c1c(C(C)=O)c(C)n(NC(=O)c2ccccc2O)c1C | -3.4% |

| Structure (SMILES) | % Inhibition @ 10 uM |
| --- | --- |
| Cc1sc2ncnc(N3CCN(Cc4ccc5c(c4)OCO5)CC3)c2c1C | -6.02% |
| Cc1ccc(C(=O)N/C(=C/c2cccnc2)C(=O)Nc2ccccc2C)cc1 | 4.65% |
| O=C(CSc1nnc(-c2ccc(Cl)cc2Cl)n1-c1ccccc1)N1CCOCC1 | 5.98% |
| Cc1ccc2oc(=O)c3cc(C(=O)N4CCN(C)CC4)sc3c2c1 | -0.0593% |
| CCc1ccc(NC(=O)Cn2c(SC)nc3ccccc32)cc1 | 3.8% |
| CCN1C(=O)NC(=O)/C(=C\c2cn(CC(=O)NCC3CCCO3)c3ccccc23)C1=O (stereo not drawn) | -5.17% |
| COC(=O)c1sccc1NC(=S)N1CCN(C(=O)c2ccco2)CC1 | -4.23% |
| CCC(O)(CCN1CCCCC1)c1ccccc1 (stereo not drawn) | 3.19% |
| CCC(=O)N1N=C(c2ccccc2)CC1c1cc2cc(OC)c(OC)cc2nc1Cl (stereo not drawn) | 6.79% |
| CC1CCN(S(=O)(=O)c2cc(F)ccc2CN2C(=O)c3cccnc3C2=O)CC1 | -4.4% |
| N#CC1=C(N)Oc2cc(O)ccc2C1c1ccccc1Br (stereo not drawn) | -1.98% |
| COc1ccc(CN2CCCC(C)C2)c(C)c1C (stereo not drawn) | 1.62% |
| O=C(NCCN1CCOCC1)C1CC2CCC1C2 (stereo not drawn) | -1.54% |
| CCCC1=NN2C(=N)/C(=C/c3ccccc3)C(=O)N=C2S1 | 10.1% |
| CCCSC1=C(C#N)C(c2ccc(Cl)cc2Cl)CC(=O)N1 (stereo not drawn) | 13.2% |
| COc1ccc(OC)c(C2C3=C(O)CC(C)(C)CC3=Nc3ccc4ncccc4c32)c1 (stereo not drawn) | 6.13% |
| CC(C)(C)NC(=O)c1oc2ccccc2c1NC(=O)COc1ccccc1 | 2.77% |
| COc1ccc(-c2ccc3c(N)c(C(=O)NCCc4ccccc4)sc3n2)cc1OC | 6.63% |
| O=C(Cn1ncn2nc(-c3cccs3)cc2c1=O)NC1CCCc2ccccc21 (stereo not drawn) | 2.27% |
| CCN(CC)CC(=O)N1c2ccccc2Sc2ccc(Cl)cc21 | 1.27% |
| CCOC(=O)c1cnc2c(Cl)cccc2c1NCCN1CCOCC1 | 5.41% |
| Cc1ccc(C(=O)Nc2cc(C)cc(C)c2)cc1 | 1.62% |
| COc1ccc(C(=O)Nc2nc3nc(C)c(Cc4ccccc4)c(O)n3n2)cc1 | 3.66% |
| CSCC[C@@H](C(=O)NC1CCCCC1)N1Cc2ccccc2C1=O | 4.54% |
